The results in this text go back to the supplement of paper PMC12217912.

B1: TEV protease; numbered along this chain (parent)
chain: MGESLFKGPRDYNPISSSICHLTNESDGHTTSLYGIGFGPFIITNKHLFRRNNGTLVVQSLHGVFKVKDTTTLQQHLVDGRDMIIIRMPKDFPPFPQKLKFREPQREERICLVTTNFQTKSMSSMVSDTSCTFPSGDGIFWKHWIQTKDGQCGSPLVSTRDGFIVGIHSASNFTNTNNYFTSVPKNFMELLTNQEAQQWVSGWRLNADSVLWGGHKVFMVKPEEPFQPVKEATQL

Variants of B1 are the subject of the experiment. The experiment can be described thus: raw area under fraction-flipped curve 0-4 h after induction (AUC4h, not background-subtracted), DNA-recorder readout of cleavage of the substrate (dimensionless); higher = more cleavage of the substrate by the protease variant. The settings on record: temperature: 34 °C; time window: 0-4 h after rhamnose induction. As for the experimental part:
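In vivo DNA recorder in E. coli TOP10(DE3) ΔrhaA at 34 °C. Each TEVp single-site mutant (parent TEVp 0) is paired with a single-site variant of the 7-mer TEVs (canonical ENLYFQ|S). The substrate sits between flexible linkers in a Bxb1-sfGFP-TEVs-SsrA fusion, so cleavage stabilises Bxb1 and speeds flipping of a recombination array, read by NGS. The value is the raw area under the fraction-flipped curve over 0-4 h after rhamnose induction (AUC4h), with ≥20 reads per time point. It is not background-subtracted; inactive controls average about 0.047.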

The other results are listed elsewhere or left out. Sequences were assembled here from the parent chain. Values near 0.05 are background.
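Note: Bxb1 expression induced with 0.2% (w/v) L-rhamnose at OD600 near 0.5, cultures sampled hourly, flipped fraction per protease–substrate barcode pair counted by paired-end Illumina sequencing.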

Regarding MGESLFKGPRDYNPISSSICHLTNESDGHTTSLYGIGFGPFIITNKHLFRRNNGTLVVQSLHGVFKVKDTTTLQQHLVDGCDMIIIRMPKDFPPFPQKLKFREPQREERICLVTTNFQTKSMSSMVSDTSCTFPSGDGIFWKHWIQTKDGQCGSPLVSTRDGFIVGIHSASNFTNTNNYFTSVPKNFMELLTNQEAQQWVSGWRLNADSVLWGGHKVFMVKPEEPFQPVKEATQL [R81C], the “area with substrate EALYFQS” value came out at 0.0925, the “area with substrate ECLYFQS” value was 0.0955, the “area with substrate EDLYFQS” value worked out at 0.0762 and the “area with substrate EELYFQS” value stood at 0.0704. Moreover, the “area with substrate EGLYFQS” value came out at 0.0726, the “area with substrate EHLYFQS” value stood at 0.079, the “area with substrate EILYFQS” value was found to be 0.0937 and the “area with substrate EKLYFQS” value is 0.0953. Also, the “area with substrate ELLYFQS” value was 0.0782, the “area with substrate EMLYFQS” value came to 0.101, the “area with substrate EPLYFQS” value turned out to be 0.108 and the “area with substrate EQLYFQS” value was 0.0933. The “area with substrate ERLYFQS” value stood at 0.0981, the “area with substrate ESLYFQS” value was found to be 0.0909, the “area with substrate ETLYFQS” value worked out at 0.0912 and the “area with substrate EVLYFQS” value came to 0.0665. The “area with substrate EWLYFQS” value turned out to be 0.113.

Regarding MGESLFKGPRDYNPISSSICHLTNESDGHTTSLYGIGFGPFIITNKHLFRRNNGTLVVQSLHGVFKVKDTTTLQQHLVDGRDMEIIRMPKDFPPFPQKLKFREPQREERICLVTTNFQTKSMSSMVSDTSCTFPSGDGIFWKHWIQTKDGQCGSPLVSTRDGFIVGIHSASNFTNTNNYFTSVPKNFMELLTNQEAQQWVSGWRLNADSVLWGGHKVFMVKPEEPFQPVKEATQL [I84E], the “area with substrate EALYFQS” value stood at 0.066, the “area with substrate ECLYFQS” value amounted to 0.06, the “area with substrate EDLYFQS” value stood at 0.0977 and the “area with substrate EELYFQS” value is 0.0731. Further, the “area with substrate EGLYFQS” value was determined as 0.0539, the “area with substrate EHLYFQS” value came out at 0.0409, the “area with substrate EILYFQS” value was 0.0408 and the “area with substrate EKLYFQS” value came out at 0.0632. The “area with substrate ELLYFQS” value was found to be 0.0571, the “area with substrate EMLYFQS” value amounted to 0.0628, the “area with substrate EPLYFQS” value was 0.0527 and the “area with substrate EQLYFQS” value was 0.062. Also, the “area with substrate ERLYFQS” value was determined as 0.056, the “area with substrate ESLYFQS” value is 0.0541, the “area with substrate ETLYFQS” value came to 0.0436 and the “area with substrate EVLYFQS” value is 0.0783. The “area with substrate EWLYFQS” value was found to be 0.0499 and the “area with substrate EYLYFQS” value was determined as 0.052.

Consider MGESLFKGPRDYNPISSSICHLTNESDGHTTSLYGIGFGPFIITNKHLFRRNNGTLVVQSLHGVFKVKDTTTLQQHLVDGRDMGIIRMPKDFPPFPQKLKFREPQREERICLVTTNFQTKSMSSMVSDTSCTFPSGDGIFWKHWIQTKDGQCGSPLVSTRDGFIVGIHSASNFTNTNNYFTSVPKNFMELLTNQEAQQWVSGWRLNADSVLWGGHKVFMVKPEEPFQPVKEATQL [I84G], for which the “area with substrate EALYFQS” value came out at 0.0504, the “area with substrate ECLYFQS” value came to 0.061, the “area with substrate EDLYFQS” value stood at 0.0872 and the “area with substrate EELYFQS” value worked out at 0.0649. The “area with substrate EGLYFQS” value was determined as 0.0759, the “area with substrate EILYFQS” value was found to be 0.051, the “area with substrate EKLYFQS” value is 0.0691 and the “area with substrate ELLYFQS” value was 0.0596. Further, the “area with substrate EPLYFQS” value stood at 0.064, the “area with substrate EQLYFQS” value came to 0.0887, the “area with substrate ERLYFQS” value was found to be 0.0636 and the “area with substrate ESLYFQS” value came out at 0.0735. Moreover, the “area with substrate EVLYFQS” value stood at 0.0617 and the “area with substrate EYLYFQS” value was found to be 0.0574.

On to MGESLFKGPRDYNPISSSICHLTNESDGHTTSLYGIGFGPFIITNKHLFRRNNGTLVVQSLHGVFKVKDTTTLQQHLYDGRDMIIIRMPKDFPPFPQKLKFREPQREERICLVTTNFQTKSMSSMVSDTSCTFPSGDGIFWKHWIQTKDGQCGSPLVSTRDGFIVGIHSASNFTNTNNYFTSVPKNFMELLTNQEAQQWVSGWRLNADSVLWGGHKVFMVKPEEPFQPVKEATQL [V78Y], for which the “area with substrate EALYFQS” value came to 0.0838, the “area with substrate ECLYFQS” value came out at 0.0703, the “area with substrate EDLYFQS” value was determined as 0.088 and the “area with substrate EELYFQS” value was 0.0783. The “area with substrate EGLYFQS” value was found to be 0.0613, the “area with substrate EHLYFQS” value was determined as 0.0758, the “area with substrate EILYFQS” value was 0.0746 and the “area with substrate ERLYFQS” value amounted to 0.0701. Moreover, the “area with substrate ESLYFQS” value amounted to 0.0638 and the “area with substrate EWLYFQS” value came out at 0.0603.

For the variant MGESLFKGPRDYNPISSSICHLTNESDGHTTSLYGIGFGPFIITNKHLFRRNNGTLVVQSLHGVFKVKDTTTLQQHLPDGRDMIIIRMPKDFPPFPQKLKFREPQREERICLVTTNFQTKSMSSMVSDTSCTFPSGDGIFWKHWIQTKDGQCGSPLVSTRDGFIVGIHSASNFTNTNNYFTSVPKNFMELLTNQEAQQWVSGWRLNADSVLWGGHKVFMVKPEEPFQPVKEATQL [V78P], the “area with substrate EALYFQS” value is 0.0709, the “area with substrate ECLYFQS” value came to 0.0786, the “area with substrate EDLYFQS” value is 0.0843 and the “area with substrate EFLYFQS” value amounted to 0.0821. The “area with substrate EGLYFQS” value came out at 0.0602, the “area with substrate EHLYFQS” value turned out to be 0.0959, the “area with substrate EILYFQS” value is 0.0596 and the “area with substrate EKLYFQS” value came out at 0.0804. The “area with substrate ELLYFQS” value worked out at 0.0695, the “area with substrate EMLYFQS” value came to 0.0805, the “area with substrate EPLYFQS” value was 0.0858 and the “area with substrate EQLYFQS” value was determined as 0.0912. Further, the “area with substrate ERLYFQS” value is 0.0848, the “area with substrate ESLYFQS” value was 0.0704, the “area with substrate ETLYFQS” value worked out at 0.0619 and the “area with substrate EVLYFQS” value turned out to be 0.0678. Moreover, the “area with substrate EWLYFQS” value was 0.0742 and the “area with substrate EYLYFQS” value stood at 0.0764.

Take MGESLFKGPRDYNPISSSICHLTNESDGHTTSLYGIGFGPFIITNKHLFRRNNGTLVVQSLHGVFKVKDTTTLQQHLWDGRDMIIIRMPKDFPPFPQKLKFREPQREERICLVTTNFQTKSMSSMVSDTSCTFPSGDGIFWKHWIQTKDGQCGSPLVSTRDGFIVGIHSASNFTNTNNYFTSVPKNFMELLTNQEAQQWVSGWRLNADSVLWGGHKVFMVKPEEPFQPVKEATQL [V78W]: the “area with substrate EALYFQS” value is 0.0837, the “area with substrate ECLYFQS” value stood at 0.0679, the “area with substrate EDLYFQS” value was 0.115 and the “area with substrate EELYFQS” value is 0.107. In addition, the “area with substrate EFLYFQS” value was 0.0684, the “area with substrate EILYFQS” value worked out at 0.0605, the “area with substrate EKLYFQS” value came out at 0.0746 and the “area with substrate ELLYFQS” value is 0.0557. Also, the “area with substrate EMLYFQS” value was found to be 0.0703, the “area with substrate EPLYFQS” value turned out to be 0.0673, the “area with substrate EQLYFQS” value stood at 0.0692 and the “area with substrate ERLYFQS” value was determined as 0.0713. The “area with substrate ESLYFQS” value turned out to be 0.0617, the “area with substrate EVLYFQS” value is 0.0554, the “area with substrate EWLYFQS” value was found to be 0.0732 and the “area with substrate EYLYFQS” value is 0.0475.

Turning to MGESLFKGPRDYNPISSSICHLTNESDGHTTSLYGIGFGPFIITNKHLFRRNNGTLVVQSLHGVFKVKDTTTLQQHLVDGRKMIIIRMPKDFPPFPQKLKFREPQREERICLVTTNFQTKSMSSMVSDTSCTFPSGDGIFWKHWIQTKDGQCGSPLVSTRDGFIVGIHSASNFTNTNNYFTSVPKNFMELLTNQEAQQWVSGWRLNADSVLWGGHKVFMVKPEEPFQPVKEATQL [D82K], the “area with substrate EALYFQS” value came out at 0.0546, the “area with substrate ECLYFQS” value was 0.0514, the “area with substrate EDLYFQS” value is 0.0597 and the “area with substrate EELYFQS” value came to 0.0663. The “area with substrate EHLYFQS” value was 0.0532, the “area with substrate EKLYFQS” value is 0.0355, the “area with substrate EMLYFQS” value was 0.0498 and the “area with substrate EPLYFQS” value came to 0.0843. The “area with substrate EQLYFQS” value was 0.0613, the “area with substrate ERLYFQS” value was found to be 0.0978, the “area with substrate ESLYFQS” value came to 0.0491 and the “area with substrate ETLYFQS” value amounted to 0.0836. Also, the “area with substrate EVLYFQS” value is 0.0553 and the “area with substrate EWLYFQS” value was found to be 0.0581.

Regarding MGESLFKGPRDYNPISSSICHLTNESDGHTTSLYGIGFGPFIITNKHLFRRNNGTLVVQSLHGVFKVKDTTTLQQHLVDGRNMIIIRMPKDFPPFPQKLKFREPQREERICLVTTNFQTKSMSSMVSDTSCTFPSGDGIFWKHWIQTKDGQCGSPLVSTRDGFIVGIHSASNFTNTNNYFTSVPKNFMELLTNQEAQQWVSGWRLNADSVLWGGHKVFMVKPEEPFQPVKEATQL [D82N], the “area with substrate EALYFQS” value was determined as 0.0535, the “area with substrate ECLYFQS” value was determined as 0.065, the “area with substrate EDLYFQS” value is 0.0631 and the “area with substrate EELYFQS” value was 0.0568. In addition, the “area with substrate EGLYFQS” value came out at 0.0413, the “area with substrate EHLYFQS” value was determined as 0.0599, the “area with substrate EILYFQS” value is 0.0631 and the “area with substrate EKLYFQS” value was found to be 0.0515. Besides, the “area with substrate ELLYFQS” value was determined as 0.0304, the “area with substrate EMLYFQS” value worked out at 0.0561, the “area with substrate EPLYFQS” value is 0.0706 and the “area with substrate EQLYFQS” value stood at 0.0529. Besides, the “area with substrate ERLYFQS” value stood at 0.0594, the “area with substrate ESLYFQS” value turned out to be 0.0569, the “area with substrate EVLYFQS” value was 0.0458 and the “area with substrate EWLYFQS” value is 0.0554. The “area with substrate EYLYFQS” value is 0.0876.
